# This is one part of the list.
# B1: Arath Fbox (Arabidopsis thaliana), NP_178341.1 (protein)
# chain: EFTWGRKRRVKSESSPFDSFPEDCISYIISFTNPRDACVAATVSKTFESTVKSDIIWEKFLPADYESLIPPSRVFSSKKELYFSLCNDPVLFDDDKKSVWLEKASGKRCLMLSAMNLSIIWGDNPQYWQWIPIPESRFEKVAKLRDVCWFEIRGRTNTRVLSPRTRYSAYIVFKGVDKCYGFQNVAIEAAVGVVGQEPSRRLICFSEAIRRGRRNVVKPKQREDGWMEIELGEFFNDGGIMDNDEIEMSALETKQLNRKCGLIIQGIEIRPAKILAAAAASFLEQKLISEEDLNSAVDHHHHHH
# Experiments:
# Test in all cases: glycan array binding signal (z-score within array); higher = stronger binding
# Settings in all cases: glycan notation: IUPAC condensed, linker removed
# [1] = molecular target: Neu5Ac(a2-3)Gal(b1-4)GlcNAc(b1-3)Gal(b1-4)GlcNAc(b1-2)Man(a1-3)[Neu5Ac(a2-3)Gal(b1-4)GlcNAc(b1-3)Gal(b1-4)GlcNAc(b1-2)Man(a1-6)]Man(b1-4)GlcNAc(b1-4)GlcNAc
# Procedure, shortened: (§1)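 Columns mapping to the same glycan were averaged after glycan names were converted to IUPAC-condensed notation. The data come from 3228 arrays in the Consortium for Functional Glycomics database, limited to those with an available protein sequence. Binding is reported as a within-array Z-score averaged across arrays of one protein sequence and across linkers.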
# [2] = molecular target: Neu5Ac(a2-3)Gal(b1-4)GlcNAc(b1-3)Gal(b1-4)GlcNAc(b1-3)Gal(b1-4)GlcNAc
# Procedure, shortened: as §1
# [3] = molecular target: Neu5Ac(a2-3)Gal(b1-4)GlcNAc(b1-3)Gal(b1-4)GlcNAc(b1-3)Gal(b1-4)GlcNAc(b1-2)Man(a1-3)[Neu5Ac(a2-3)Gal(b1-4)GlcNAc(b1-3)Gal(b1-4)GlcNAc(b1-3)Gal(b1-4)GlcNAc(b1-2)Man(a1-6)]GalNAc
# Procedure, shortened: as §1
# [4] = molecular target: Neu5Ac(a2-3)Gal(b1-4)GlcNAc(b1-3)Gal(b1-4)GlcNAc(b1-3)GalNAc
# Procedure, shortened: as §1
# [5] = molecular target: Neu5Ac(a2-3)Gal(b1-4)GlcNAc(b1-3)Gal(b1-4)GlcNAc(b1-3)[Neu5Ac(a2-3)Gal(b1-4)GlcNAc(b1-3)Gal(b1-4)GlcNAc(b1-6)]GalNAc
# Procedure, shortened: as §1
# [6] = molecular target: Neu5Ac(a2-3)Gal(b1-4)GlcNAc(b1-3)Gal(b1-4)GlcNAc(b1-6)[Gal(b1-3)]GalNAc
# Procedure, shortened: as §1
# [7] = molecular target: Neu5Ac(a2-3)Gal(b1-4)GlcNAc(b1-3)Gal(b1-4)[Fuc(a1-3)]GlcNAc
# Procedure, shortened: as §1
# [8] = molecular target: Neu5Ac(a2-3)Gal(b1-4)GlcNAc(b1-3)GalNAc
# Procedure, shortened: as §1
# [9] = molecular target: Neu5Ac(a2-3)Gal(b1-4)GlcNAc(b1-3)[Neu5Ac(a2-3)Gal(b1-4)GlcNAc(b1-6)]GalNAc
# Procedure, shortened: as §1
# [10] = molecular target: Neu5Ac(a2-3)Gal(b1-4)GlcNAc(b1-6)GalNAc
# Procedure, shortened: as §1
# [11] = molecular target: Neu5Ac(a2-3)Gal(b1-4)GlcNAc(b1-6)[Gal(b1-3)]GalNAc
# Procedure, shortened: as §1
# [12] = molecular target: Neu5Ac(a2-3)Gal(b1-4)GlcNAc(b1-6)[Neu5Ac(a2-3)Gal(b1-3)]GalNAc
# Procedure, shortened: as §1
# [13] = molecular target: Neu5Ac(a2-3)Gal(b1-4)GlcNAc6S
# Procedure, shortened: as §1
# [14] = molecular target: Neu5Ac(a2-3)Gal(b1-4)[Fuc(a1-3)]GlcNAc
# Procedure, shortened: as §1
# [15] = molecular target: Neu5Ac(a2-3)Gal(b1-4)[Fuc(a1-3)]GlcNAc(b1-2)Man
# Procedure, shortened: as §1
# [16] = molecular target: Neu5Ac(a2-3)Gal(b1-4)[Fuc(a1-3)]GlcNAc(b1-3)Gal
# Procedure, shortened: as §1
# [17] = molecular target: Neu5Ac(a2-3)Gal(b1-4)[Fuc(a1-3)]GlcNAc(b1-3)Gal(b1-4)GlcNAc
# Procedure, shortened: as §1
# [18] = molecular target: Neu5Ac(a2-3)Gal(b1-4)[Fuc(a1-3)]GlcNAc(b1-3)Gal(b1-4)[Fuc(a1-3)]GlcNAc(b1-3)Gal(b1-4)[Fuc(a1-3)]GlcNAc
# Procedure, shortened: as §1
# [19] = molecular target: Neu5Ac(a2-3)Gal(b1-4)[Fuc(a1-3)]GlcNAc(b1-3)GalNAc
# Procedure, shortened: as §1
# [20] = molecular target: Neu5Ac(a2-3)Gal(b1-4)[Fuc(a1-3)]GlcNAc(b1-6)[Gal(b1-3)]GalNAc
# Procedure, shortened: as §1
# [21] = molecular target: Neu5Ac(a2-3)Gal(b1-4)[Fuc(a1-3)]GlcNAc(b1-6)[Neu5Ac(a2-3)Gal(b1-3)]GalNAc
# Procedure, shortened: as §1
# [22] = molecular target: Neu5Ac(a2-3)Gal(b1-4)[Fuc(a1-3)]GlcNAc6S
# Procedure, shortened: as §1
# [23] = molecular target: Neu5Ac(a2-3)Gal6S(b1-4)GlcNAc
# Procedure, shortened: as §1
# [24] = molecular target: Neu5Ac(a2-3)Gal6S(b1-4)[Fuc(a1-3)]GlcNAc
# Procedure, shortened: as §1
# [25] = molecular target: Neu5Ac(a2-3)GalNAc
# Procedure, shortened: as §1
# [26] = molecular target: Neu5Ac(a2-3)GalNAc(b1-4)GlcNAc
# Procedure, shortened: as §1
# [27] = molecular target: Neu5Ac(a2-3)[GalNAc(b1-4)]Gal(b1-4)Glc
# Procedure, shortened: as §1
# [28] = molecular target: Neu5Ac(a2-3)[GalNAc(b1-4)]Gal(b1-4)GlcNAc
# Procedure, shortened: as §1
# [29] = molecular target: Neu5Ac(a2-3)[GalNAc(b1-4)]Gal(b1-4)GlcNAc(b1-3)GalNAc
# Procedure, shortened: as §1
# [30] = molecular target: Neu5Ac(a2-3)[Neu5Ac(a2-6)]GalNAc
# Procedure, shortened: as §1
# [31] = molecular target: Neu5Ac(a2-6)Gal
# Procedure, shortened: as §1
# [32] = molecular target: Neu5Ac(a2-6)Gal(b1-3)GlcNAc(b1-3)[Gal(b1-4)GlcNAc(b1-6)]Gal(b1-4)Glc
# Procedure, shortened: as §1
# [33] = molecular target: Neu5Ac(a2-6)Gal(b1-4)Glc
# Procedure, shortened: as §1
# [34] = molecular target: Neu5Ac(a2-6)Gal(b1-4)GlcNAc
# Procedure, shortened: as §1
# [35] = molecular target: Neu5Ac(a2-6)Gal(b1-4)GlcNAc(b1-2)Man
# Procedure, shortened: as §1
# [36] = molecular target: Neu5Ac(a2-6)Gal(b1-4)GlcNAc(b1-2)Man(a1-3)Man(b1-4)GlcNAc(b1-4)GlcNAc
# Procedure, shortened: as §1
# [37] = molecular target: Neu5Ac(a2-6)Gal(b1-4)GlcNAc(b1-2)Man(a1-3)[Gal(b1-4)GlcNAc(b1-2)Man(a1-6)]Man(b1-4)GlcNAc(b1-4)GlcNAc
# Procedure, shortened: as §1
# [38] = molecular target: Neu5Ac(a2-6)Gal(b1-4)GlcNAc(b1-2)Man(a1-3)[GlcNAc(b1-2)Man(a1-6)]Man(b1-4)GlcNAc(b1-4)GlcNAc
# Procedure, shortened: as §1
binder,measurement,setting,value
B1,glycan array binding signal (z-score),[1],2.64
same,glycan array binding signal (z-score),[2],-0.498
same,glycan array binding signal (z-score),[3],-0.094
same,glycan array binding signal (z-score),[4],-0.281
same,glycan array binding signal (z-score),[5],-0.569
same,glycan array binding signal (z-score),[6],-0.54
same,glycan array binding signal (z-score),[7],-0.365
same,glycan array binding signal (z-score),[8],-0.768
same,glycan array binding signal (z-score),[9],-0.768
same,glycan array binding signal (z-score),[10],0.075
same,glycan array binding signal (z-score),[11],1.6
same,glycan array binding signal (z-score),[12],-0.718
same,glycan array binding signal (z-score),[13],0.949
same,glycan array binding signal (z-score),[14],-0.673
same,glycan array binding signal (z-score),[15],-0.423
same,glycan array binding signal (z-score),[16],-0.54
same,glycan array binding signal (z-score),[17],0.309
same,glycan array binding signal (z-score),[18],-0.557
same,glycan array binding signal (z-score),[19],2.69
same,glycan array binding signal (z-score),[20],0.975
same,glycan array binding signal (z-score),[21],2.17
same,glycan array binding signal (z-score),[22],-0.627
same,glycan array binding signal (z-score),[23],-0.45
same,glycan array binding signal (z-score),[24],-0.559
same,glycan array binding signal (z-score),[25],-0.404
same,glycan array binding signal (z-score),[26],-0.734
same,glycan array binding signal (z-score),[27],-0.122
same,glycan array binding signal (z-score),[28],-0.659
same,glycan array binding signal (z-score),[29],-0.439
same,glycan array binding signal (z-score),[30],-0.205
same,glycan array binding signal (z-score),[31],0.211
same,glycan array binding signal (z-score),[32],-0.627
same,glycan array binding signal (z-score),[33],-0.577
same,glycan array binding signal (z-score),[34],0.207
same,glycan array binding signal (z-score),[35],1.84
same,glycan array binding signal (z-score),[36],-0.179
same,glycan array binding signal (z-score),[37],-0.062
same,glycan array binding signal (z-score),[38],-0.546

# Reference: the supplement of paper PMC8728848
